According to the supplement of paper PMC3334620:
Whole data set: some 33,000 sequences, median “E-score (-0.5 to 0.5)” near -0.011, cut for the highest 2% near 0.28. The list shows a part of the results.

Target: T1, Gcr1 (UniProt P07261)
T1 sequence: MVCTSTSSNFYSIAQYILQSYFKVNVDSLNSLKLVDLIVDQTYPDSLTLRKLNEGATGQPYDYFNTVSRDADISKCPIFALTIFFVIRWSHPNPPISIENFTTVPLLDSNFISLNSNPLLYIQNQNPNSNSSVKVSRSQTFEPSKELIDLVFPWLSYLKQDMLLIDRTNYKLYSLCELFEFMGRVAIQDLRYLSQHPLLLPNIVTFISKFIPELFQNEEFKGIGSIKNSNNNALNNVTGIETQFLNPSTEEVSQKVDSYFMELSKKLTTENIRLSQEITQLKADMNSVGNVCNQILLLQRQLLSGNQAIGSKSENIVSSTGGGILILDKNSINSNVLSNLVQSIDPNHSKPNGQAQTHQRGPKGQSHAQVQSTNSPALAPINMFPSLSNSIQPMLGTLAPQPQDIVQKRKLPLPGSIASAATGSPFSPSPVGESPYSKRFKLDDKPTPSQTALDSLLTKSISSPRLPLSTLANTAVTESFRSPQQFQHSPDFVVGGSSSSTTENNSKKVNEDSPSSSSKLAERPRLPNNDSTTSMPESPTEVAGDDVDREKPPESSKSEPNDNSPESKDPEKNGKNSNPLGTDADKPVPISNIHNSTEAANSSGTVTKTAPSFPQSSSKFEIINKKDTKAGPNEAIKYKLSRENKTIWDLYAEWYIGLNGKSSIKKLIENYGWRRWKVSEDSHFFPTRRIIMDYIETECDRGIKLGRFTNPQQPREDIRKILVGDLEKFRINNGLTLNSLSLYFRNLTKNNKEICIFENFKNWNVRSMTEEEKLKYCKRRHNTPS
Assay: PBM E-score (8-mer binding enrichment) (E-score (-0.5 to 0.5)); higher = stronger / more preferred TF binding; most listed sequences are background and not binding sites
Settings: protein concentration: 100 nM; construct: GST-full length
Procedure, shortened: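 The E-score, a modified Wilcoxon-Mann-Whitney statistic, was computed by the Universal PBM Analysis Suite for every ungapped eight-base word pooled with its reverse complement. Scans behind it were normalised with masliner after bound GST-tagged yeast transcription factors were detected with fluorescent anti-GST. The proteins, at about 100-200 nM, had been applied to universal all-10-mer Agilent arrays made double-stranded by primer extension.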

Sequence	PBM E-score
GGCATGCC	-0.0696
TTATTAAA	0.211
CTCATGCA	-0.0866
CGTAGTCC	-0.209
AAGGTGCA	-0.0118
ATAGGACC	0.124
AATATGGT	0.0724
AAACGCCA	-0.13
CTTGTGAA	-0.148
AACGTCAA	0.0249
CTCAAGTC	-0.042
AACGGGGC	0.113
AAGGAAAG	-0.115
CCCTTATA	0.0626
ACAAGAGG	0.141
GGTTCCTA	0.342
TAATGCTA	0.14
ACAGTCCA	-0.304
CAAGTCAA	-0.0468
GATGGGCA	-0.0836
AAAGCACC	0.0793
CGTATGAG	-0.35
ATCTGTGA	0.0268
CGCTTCCC	0.273
TAGTAGCA	0.255

Sequence	PBM E-score
AAAATCTG	0.161
ATCTCCAG	0.195
GTGGCTCA	-0.145
CCGCGGCA	0.0762
AGCTTGAG	-0.0513
CAACCATG	-0.116
CACTGATA	0.0972
CCTCAGAA	0.0227
CAGGCCTA	-0.0939
AGTGCCGC	-0.233
ACCTACGA	0.0612
CCAGTCGC	0.0545
CCTCTCCC	-0.162
ATCGATGA	-0.202
CGTAAGGA	-0.129
GTGACGTA	-0.114
AGAGTTCG	-0.148
AGTTCCAG	0.139
CAGACGCA	0.175
CATCGATC	-0.217
CTAGCGAA	-0.172
AGATGAAA	-0.0505
GGCGAGCC	-0.0874
CGGTAACG	-0.169
CGGCCTAA	-0.178

Sequence	PBM E-score
CCCCAACA	0.0205
CCTGAAGG	-0.0891
GCACAAAC	-0.124
CGCCCCGA	-0.0435
AGGTTAAG	-0.129
GATGGGAA	0.123
ACATAACT	-0.00162
GGTTGACA	0.0705
CACACCGA	-0.0514
CAGGTAAA	-0.0673
CAGGGACC	0.0209
CGTCGTTC	-0.174
ACCAACCA	0.0293
ATCGAAGC	0.0574
ACAGGGAT	0.133
GCTGAGCC	-0.0982
AGCTTCAG	-0.19
AAGAAAGG	-0.125
AGAAAATG	0.172
CATGCGAG	0.0316
CCATTCAC	-0.052
AAAACCCT	-0.0492
CCGGGGCA	-0.0316
CTTCCGTC	0.0607
CATGAGAA	0.0814

Sequence	PBM E-score
CCTGGGTA	0.0628
CCATGGGA	0.0211
AGCCCCAT	0.127
CCACCAAA	-0.027
ACCAAGAT	0.135
AGTGAAGG	-0.108
ACCGTATG	-0.0243
CTTGCTAA	-0.145
ACTCGGCG	0.0257
CCCATTAC	-0.098
GGGCCGAC	-0.178
GCTGCTAC	0.249
GATACTGA	0.0945
CGTTTACA	0.101
CCATCTAG	-0.0373
CATTCAGG	0.138
AATGTGGA	0.221
GCCAAAGA	0.155
GTGAAGCA	-0.111
ATTGCCAA	-0.0899
AGAGCGGC	-0.0344
ATATGATC	0.0769
CATAGGGC	-0.0384
GACGGGTA	-0.202
ACAGGCAA	0.0089

Sequence	PBM E-score
CCTGGGGA	0.0113
ATGACTAA	-0.194
GAATGCGC	0.164
CGGTGTGA	-0.114
GTAGACAC	-0.063
CAAGAGCG	0.0229
ACCGATGC	-0.058
ACAAGGTA	-0.0513
GGATAGCC	-0.0295
GCCCCTAC	0.0372
AGTTAAAA	-0.0335
TCGTAAGA	-0.131
GTGTAACA	-0.0191
AAGAGAAT	-0.00736
ATTGCTAC	0.11
CGGGAACC	0.289
AAGTGTTC	0.00183
AAGTATGA	-0.0833
GTAGTCAA	-0.00486
CCGAACAC	0.0248
ATGACCAA	-0.114
CTCCAGCA	-0.103
CTGGCCCC	0.13
CTACTGGC	0.0475
AACACTCG	0.0837

Sequence	PBM E-score
GGTCCACA	-0.201
CTCTGAGC	-0.0198
AAAGGACC	-0.0758
AATAGCGC	0.0793
GCCTCGCC	-0.133
ATGTCGAC	-0.0503
AAATGAGG	-0.0851
AGGCTACT	-0.0491
ACGGTCGC	-0.222
GATTCACC	0.135
GTCGACCA	-0.34
AGCGCACC	0.00658
AGGGTGTA	0.0433
CTCGTCCA	0.0183
AAGATCGA	-0.0911
GTCATGAA	-0.0343
AATGTGAT	-0.0732
CTGTCATC	0.00806
CATTAAGC	0.00637
TCGACGCA	-0.17
ACCTTTAA	0.0454
AAACTCCG	-0.0765
GTATATAC	-0.108
CACTAGCG	-0.0167
CCAGGGTA	-0.22

Sequence	PBM E-score
ACGAGCAT	0.00589
CCGTACTA	-0.174
GATTACTA	-0.0812
AAACCCCG	-0.0587
GCGGGCTA	-0.0536
GTCACCAC	0.0885
ACCAACGA	0.0176
CAAGGTCC	0.0206
AGCTTTCG	-0.1
GCACAAGA	0.122
TCCCGAGA	-0.0262
ATTCTCGG	0.123
CAAGCCTA	-0.148
CTTTGGAC	-0.147
TATGAGGA	0.00369
AGTTCGGC	0.0244
TACATTGA	0.00981
AGGAACAA	-0.0764
ACTAAGAA	0.191
ACGACACG	-0.163
AGACTTAG	-0.0811
GTAACCCA	0.0887
ACGTTACG	0.0478
TATCCCAA	0.0284
ATCTATCC	0.0419

Sequence	PBM E-score
AGGTATCA	0.0276
CATATCAC	-0.00769
ATTGTAGC	0.0431
GGCCATAC	-0.166
ACGAGTCC	-0.016
GGACCAAA	0.0825
ACGCTTAC	-0.104
CCTAGTTA	0.0265
CATCGTAG	-0.35
CCCACTCA	0.104
GATGAATC	-0.0514
ACTCTAAC	0.00366
CCGAACAG	-0.0664
CGTGTAGC	-0.0292
ACAAAATA	0.233
CGATTCCC	0.0331
AGTGAGTG	-0.0793
AGTCGCAC	-0.155
AATTCTTG	0.154
CTCGCGGC	-0.0235
CTATACTC	-0.14
AGCCGCCC	0.0768
CGCTGAAC	0.0885
GCCAGTGA	-0.00473
CAACCCGC	-0.0249

Sequence	PBM E-score
CGCCCAAA	0.157
ACTCTCCA	-0.0972
ATCCCTTC	-0.161
AACGACGC	0.13
GACAGCCA	0.0445
TCACAGAA	-0.0239
CTTGAACC	-0.363
AATATATT	0.132
CACTTACG	-0.0106
AACGCCTG	-0.0154
ACATCACC	-0.0972
CCATAAAA	0.106
ACAATATG	-0.0528
GATTGGTA	0.0347
AGGCAACG	0.0198
CCTGAAAG	-0.0259
ACCCGGCC	-0.224
AAAGAGTA	0.0206
AGCTTTGA	-0.112
CGGAAGTC	-0.00248
CCTTCTCA	-0.156
CTTTGTGA	-0.0688
GGCCCTAC	-0.0581
GCGCGCGC	0.0446
GACCACAC	-0.159

Sequence	PBM E-score
GACCCCTC	-0.203
CTAACCAA	-0.0148
CCTGACCC	-0.0409
TACGGTAA	-0.0567
CAGCGCTA	-0.0949
AGAAGGCT	-0.0825
GGGAGTGA	-0.0739
AACCCGAT	0.0971
CAGGGTAC	-0.0251
CAGCCGGC	0.0486
GCTGAACA	-0.00426
ATACTGAT	0.0854
CCGTAGTA	0.00467
GGCTTCAA	-0.00701
AGGTTATA	-0.00288
ATAAAGTC	0.045
CCTCGAAG	-0.0719
AAGCTCAA	0.0073
CTCTCTTC	-0.0719
GCTGAAGC	-0.244
AGGCGGAC	-0.11
CGACATGC	-0.107
AGTTACGA	-0.0306
CGAGGCGA	-0.24
AGCCCTCC	-0.0845

Sequence	PBM E-score
AATACACG	0.0422
AACTTTAG	0.0541
GACACGTC	-0.188
CTTCAAGA	-0.0248
GATCTTAC	0.0564
GATATTAA	0.273
AGCGAGCG	-0.0853
ACGAGATC	-0.132
GCACGCGC	-0.0786
GATCTTAA	0.0466
ACGCTCCG	0.147
AGGCTTCG	0.00576
ATTGCCTA	-0.142
CGCGTCCC	0.0398
CTGCGTCA	-0.0458
CACCGGCA	0.113
AGTTCGTC	0.0308
ATGTATAG	0.0743
AGACTGAC	-0.159
CTTGCCTA	-0.223
AGTAATTG	0.0455
GTTAAGGA	0.0919
ACTGGGCT	-0.0292
AAGAGGGT	-0.0876
AGTCAATC	0.0162

Sequence	PBM E-score
AACTCGAC	0.0369
AGAGCGCA	-0.136
ATCCCAAT	0.151
AATTTGGG	0.167
ACTGCGAG	-0.0742
AGTGCCTA	-0.0357
AAGTGCAG	-0.0458
CACCTAGG	-0.108
ACCCGATC	0.0489
AAGAGCTC	-0.0616
CGGGACGC	0.13
CTAGCATC	0.315
ACAACTGT	-0.0194
ATGGGGGG	-0.203
GTGGCAAA	-0.0169
ACTACGGG	0.00638
GCCTGAGC	-0.185
ACGTGCAC	-0.15
ACTACACC	-0.0155
CAATAGAA	0.0509
AGGTCTCC	-0.0285
ATCTCCTA	-0.00396
CTGAGCCC	-0.028
CTCTCTAA	-0.179
CTTTCGGA	0.12

Sequence	PBM E-score
AGGAACGC	0.174
GAGCATTA	-0.0611
AAAGCCAG	-0.11
AATTCGGG	0.0184
AGGGTTAA	-0.18
CTGAGGAA	0.167
CTGCTATC	0.0665
GGTCTTGA	-0.053
AGCAAGTA	-0.149
ACCTGATG	-0.0625
AATGGACC	-0.059
ATAGTATC	-0.0723
GGCCGCTA	0.111
ACAACCCG	0.0764
AAAACGCA	-0.0494
ACATTTGC	-0.0633
ACAGAATG	-0.0529
TCTTGAAA	0.179
CTAGGCCA	-0.268
ACTGCCAG	-0.0693
GGTCTTAA	-0.0108
AACACGTG	-0.0956
CTTTGTAC	-0.121
ATACCCAT	-0.103
CAGCCAGG	-0.0672

Sequence	PBM E-score
CCTCTAGC	-0.206
ACGCCATA	0.0626
CCGCATGA	0.0248
AAGCCGCG	0.133
CCCCGTCC	-0.0154
GAGAATAC	-0.0814
CATGACAA	-0.187
CATCCTAA	0.188
AAATTCAA	-0.00063
ACACTACT	0.0294
CGAATCCC	0.192
ACACAAGC	-0.131
TGACTTAA	-0.0705
CCAACCTA	-0.114
CACCATAG	0.0424
CATAACAC	-0.0343
AGATGCGG	0.219
GGCCAAAA	0.147
AAGGGCGG	0.06
